Experimental data as given in paper doi:10.1101/2025.08.11.669663 (bioRxiv, 2025).

Target: T1, catalase (CAT) (human (endogenous in HeLa), UniProt P04040 1-527)
T1 sequence (looked up): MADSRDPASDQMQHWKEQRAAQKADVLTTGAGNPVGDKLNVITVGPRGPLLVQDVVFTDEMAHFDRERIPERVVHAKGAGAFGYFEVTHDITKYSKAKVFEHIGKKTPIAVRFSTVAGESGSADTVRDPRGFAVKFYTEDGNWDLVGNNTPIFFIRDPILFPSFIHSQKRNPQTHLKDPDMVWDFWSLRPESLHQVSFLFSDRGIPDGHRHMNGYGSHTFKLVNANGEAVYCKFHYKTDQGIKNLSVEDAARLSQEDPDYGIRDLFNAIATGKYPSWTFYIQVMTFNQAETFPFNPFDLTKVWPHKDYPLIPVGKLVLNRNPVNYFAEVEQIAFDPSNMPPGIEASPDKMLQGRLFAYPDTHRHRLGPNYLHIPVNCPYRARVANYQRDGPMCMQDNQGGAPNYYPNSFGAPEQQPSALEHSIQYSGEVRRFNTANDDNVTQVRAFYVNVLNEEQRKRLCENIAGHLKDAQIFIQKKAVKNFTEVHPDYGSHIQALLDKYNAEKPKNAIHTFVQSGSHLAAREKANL
Assay: co-IP

- co-precipitated amount after H2O2 treatment, percent of that without H2O2: 144%
B1: MCM2 (natural protein)
chain: not shown
